Results published in article PMC4336329 (PLoS ONE, 2015).
The whole screen tested about 310,000 compounds, of which about 14,000 (4.5%) showed an effect of 50% or more. The effect is printed as a negative number. This is one part of the list.

Target: human ether-à-go-go-related gene (hERG) potassium channel (human, UniProt Q12809)
Experiment: primary screen, population patch clamp on CHO cells stably expressing hERG
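Also: peak tail current of the secondary pulse compared with the same well before compound.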

human ether-à-go-go-related gene (hERG) potassium channel, sequence (Q12809 whole entry, looked up): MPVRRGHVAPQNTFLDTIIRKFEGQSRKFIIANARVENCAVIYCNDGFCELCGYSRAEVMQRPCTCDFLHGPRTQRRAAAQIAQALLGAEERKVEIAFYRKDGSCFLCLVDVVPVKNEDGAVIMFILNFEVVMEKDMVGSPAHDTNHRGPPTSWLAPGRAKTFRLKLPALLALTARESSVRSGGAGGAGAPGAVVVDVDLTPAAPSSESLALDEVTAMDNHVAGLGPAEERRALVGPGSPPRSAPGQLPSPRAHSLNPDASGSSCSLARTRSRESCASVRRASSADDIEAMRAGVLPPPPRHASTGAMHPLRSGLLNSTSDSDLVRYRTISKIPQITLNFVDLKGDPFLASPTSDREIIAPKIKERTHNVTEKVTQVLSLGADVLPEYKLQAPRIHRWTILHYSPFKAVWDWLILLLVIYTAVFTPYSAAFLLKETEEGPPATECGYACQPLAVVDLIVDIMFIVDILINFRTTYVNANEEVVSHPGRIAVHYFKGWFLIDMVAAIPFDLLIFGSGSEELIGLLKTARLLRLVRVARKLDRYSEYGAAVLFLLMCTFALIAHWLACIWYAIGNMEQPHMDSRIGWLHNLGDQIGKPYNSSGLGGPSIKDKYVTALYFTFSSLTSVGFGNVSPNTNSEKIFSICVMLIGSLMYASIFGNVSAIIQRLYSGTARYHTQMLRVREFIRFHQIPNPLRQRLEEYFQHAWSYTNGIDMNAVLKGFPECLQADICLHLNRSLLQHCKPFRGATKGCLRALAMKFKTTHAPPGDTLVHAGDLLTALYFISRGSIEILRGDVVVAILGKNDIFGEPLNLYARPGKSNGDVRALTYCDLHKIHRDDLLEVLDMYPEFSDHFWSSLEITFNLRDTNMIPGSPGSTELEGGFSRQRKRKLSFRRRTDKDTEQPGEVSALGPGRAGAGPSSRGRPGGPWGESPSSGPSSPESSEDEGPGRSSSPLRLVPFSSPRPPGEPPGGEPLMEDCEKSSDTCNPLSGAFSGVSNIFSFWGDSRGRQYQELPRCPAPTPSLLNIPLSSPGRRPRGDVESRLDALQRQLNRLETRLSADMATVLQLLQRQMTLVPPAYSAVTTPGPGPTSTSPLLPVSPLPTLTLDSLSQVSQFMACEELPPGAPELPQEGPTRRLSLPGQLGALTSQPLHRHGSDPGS

Point of comparison: `Cc1csc(NC(=O)CSc2nc3nc(C)cc(C)n3n2)n1`, “hERG current change (%, negative = inhibition) at 10uM” value -21.4%. Against it:
- Cc1ccc(NC(=O)CS(=O)CC(=O)N2CCN(c3ccccc3)CC2)cc1 (centres unmarked) — higher, 11.8%
- COC(=O)CCCC1=CC2=CC(=O)C(C)(OC(=O)c3cnc4ccccc4n3)C(=O)C2=CO1 (centres unmarked) — higher, 7.07%
- Cc1ccc(-n2c(C)c(C)c3c(NCCO)ncnc32)cc1 — higher, 6.27%
- N#CCCN1CCN(S(=O)(=O)c2ccc(S(=O)(=O)NCc3ccccc3)cc2)CC1 — higher, -2.09%
- O=C(Nc1ccc(CN2CCCCC2)cc1)c1cc(Br)ccc1Cl — higher, -20.3%
- COc1cc(/C=C2/C(=O)CNC2=O)ccc1O — higher, 12.2%
- Oc1c(CN2CCN(c3ccc(F)cc3)CC2)cc(Cl)c2cccnc12 — lower, -24.4%
- O=C(O)c1cccc(-c2ccc(/C=N/NC(=O)C3COc4ccccc4O3)o2)c1 (centres unmarked) — higher, 1.12%
- Cc1cc(Br)ccc1NC(=O)CN(C)C(=O)CNC(=O)Cc1ccccc1 — higher, -8.23%
- CCOc1cc(C(=O)NC(C)c2ccncc2)cc(OCC)c1OCC (centres unmarked) — higher, -5.74%
- COc1cc(/C=C/C(=O)OCC(=O)NC2CC2)cc(S(=O)(=O)N2CCc3ccccc32)c1OC — lower, -48.1%
- COc1cc2[nH]c(=O)n(Cc3ccc(C(=O)NC4CCCC4)cc3)c(=O)c2cc1OC — higher, 8.5%
- CC(C)Cn1cnc2c(c(-c3ccccc3)c(-c3ccccc3)n2Cc2ccco2)c1=N — lower, -73.3%
- CC(=O)Nc1ccc(S(=O)(=O)N[C@@H](C)C(=O)N2CCN(C/C=C/c3ccccc3)CC2)cc1 — lower, -31.8%
- O=C(NCC1CCCO1)c1ccccn1 (centres unmarked) — higher, 6.15%
- COc1ccc(CCNC(=O)CCCOc2ccc(Cl)cc2)cc1OC — higher, -15.3%
- COc1ccc(/C(C)=N/NC2=NCCN2)cc1Cl — lower, -44.3%
- CC(NC(=O)c1cc2cc(Br)ccc2oc1=N)c1ccccc1 (centres unmarked) — higher, 1.31%
- CC(=O)c1ccc(Nc2ccc(-c3ccccc3F)nn2)cc1 — higher, -4.25%
- CCc1cc(C(=O)Nc2cc(Cl)ccc2N2CCN(C)CC2)sc1C — higher, 3.43%
- O=S1(=O)N=C2CCCCCN2C(c2ccc(F)cc2)N1 (centres unmarked) — higher, 8.88%
- O=c1oc2ccccc2n1Cc1cccc(Cl)c1 — higher, 7.73%
- CCSc1nnc(NC(=O)c2ccc3ccccc3n2)s1 — higher, 13.4%
- CS/C(N)=N/S(=O)(=O)c1ccc(NC(C)=O)cc1 — higher, 17.6%
- CCOC(=O)Cn1nc(NC(=O)c2ccc(C(=O)OC)cc2)cc1C — higher, 7.5%
- CCc1ccc2[nH]c(=O)c(CN(CCCN3CCOCC3)C(=O)Nc3cccc(Cl)c3)cc2c1 — lower, -54.1%
- Cc1ccc(S(=O)(=O)N2CCCC(C(=O)NCCCN3CCCCC3C)C2)cc1 (centres unmarked) — lower, -26.4%
- CCOc1ccc(C(=O)NCC(=O)OCc2c(C)noc2C)cc1OCC — higher, 23.2%
- CCCCOC(=O)C(C#N)c1nc2ccccc2nc1N1CCOCC1 (centres unmarked) — higher, -12.8%
- COc1nonc1NCn1nc(C)cc1C — higher, 16.2%
- Cc1cc(=O)oc2cc(OC(C)C(=O)NCC3CCCO3)ccc12 (centres unmarked) — higher, 16.1%
- Cc1cc(C)cc(N(C(=O)c2snc(C(N)=O)c2N)C(C(=O)NCC2CCCO2)c2ccc(C)o2)c1 (centres unmarked) — higher, -6.05%
- N#C/C(=N\Nc1ccccc1)C(N)=S — higher, 2.56%
- CN(C(=O)C1CCN(S(=O)(=O)c2cccs2)CC1)C1CCCCC1 — higher, -17%
- O=C(c1cc2cc(Br)ccc2o1)N1CCOCC1 — higher, -1.63%
- Cc1ccc2[nH]c3c(c2c1)CN(C(=O)CN1C[C@H]2C[C@@H](C1)c1cccc(=O)n1C2)CC3 — lower, -37.3%
- CCn1c(=O)c2sccc2n2c(CCCC(=O)NCc3cccnc3)nnc12 — higher, 23%
- Cc1nn(C)cc1C(=O)Nc1cc(Oc2ccc(Cl)cc2)cc([N+](=O)[O-])c1 — higher, 1.54%
- CNC(=O)c1[nH]cnc1C(=O)N[C@@H](CC(C)C)C(=O)OC(C)(C)C — higher, -10.5%
- N/C(=N\OC(=O)CCCOc1ccccc1)c1ccncc1 — higher, -2.02%
- C/C(=N\NC(=O)C(c1ccccc1)c1ccccc1)c1ccccn1 — higher, -5.44%
- CCC(=O)N1N=C(c2c(-c3ccccc3)c3cc(Cl)ccc3[nH]c2=O)CC1c1ccco1 (centres unmarked) — higher, -8.72%
- Cc1ccc(NC(C(N)=O)c2c(C)[nH]c(=O)[nH]c2=O)cc1 (centres unmarked) — higher, 9.36%
- CCOc1ccccc1NC(=O)CSc1nc(=O)n(Cc2ccccn2)c2c1CCC2 — lower, -36.5%
- COc1ccc(NC(=O)c2csc3c2CCCC3)cc1 — higher, -1.97%
- CN(C[C@@H](CC1CCCCC1)N(C[C@H](Cc1ccccc1)N(CCc1ccccc1)N=O)N=O)N=O.[Na+] — higher, 12.2%
- COC(=O)C1C2CCC(C2)C1C(=O)OCC(=O)c1ccc(C)cc1 (centres unmarked) — higher, -19.5%
- Cc1cccc(/C=N\Nc2nnc(-c3ccccc3)c(=O)[nH]2)c1 — higher, -6.75%
- COC(=O)c1cc(OC(=O)c2ccc(=O)[nH]c2)cc(C(=O)OC)c1 — higher, -5.48%
- O=C(Nc1nc2ccc(S(=O)(=O)N3CCCC3)cc2s1)c1ccccn1 — higher, -16.6%
- CC1=NN(c2ccccc2)C(=O)C1/C=C1\C(=O)NC(=O)N(c2ccc(C)c(C)c2)C1=O (centres unmarked) — higher, 11.8%
- Cc1onc(-c2ccccc2Cl)c1C(=O)Nc1sc2c(c1C#N)CCC2 — higher, 5.11%
- Cc1ccccc1S(=O)Cc1ccc(C(=O)N2CCN(C(=O)c3ccco3)CC2)o1 (centres unmarked) — higher, 17.4%
- O=C(N1CCN(c2ccccc2F)CC1)C12CC3CC(CC(C3)C1)C2 — higher, -17.6%
- CCC(C)NC(=O)c1cc2c(=O)n(CC)c3ccccc3c2s1 (centres unmarked) — higher, -10.6%
- Cc1onc(-c2ccccc2)c1C(=O)N1CCCCCC1 — higher, 6.94%
- Cc1ccc(S(=O)(=O)NNC(=O)c2cc3cc4ccccc4nc3s2)cc1 — higher, -7.88%
- COc1ccc(C(=S)N2CCCC2)cc1C — higher, 4.72%
- O=C(COC(=O)c1ccccc1NC(=O)c1ccco1)NCc1ccc2c(c1)OCO2 — higher, 0.815%
- O=C(CSc1nc(C(F)(F)F)cc(=O)[nH]1)N1CCC(Cc2ccccc2)CC1 — higher, -18.4%
- CN(C)C(=O)N1CCCC(C(=O)NCc2ccccc2Cl)C1 (centres unmarked) — higher, -14.7%
- O=C(O)CCc1nc2cccnc2n1Cc1ccccc1 — lower, -24.6%
- CCc1noc(C)c1C(=O)N1CCCC(N2CCN(c3ccc(F)cc3)CC2)C1 (centres unmarked) — lower, -27.2%
- O=C(Nc1nnc(-c2ccc3c(c2)CCCC3)o1)C1COc2ccccc2O1 (centres unmarked) — higher, 2.84%
- COc1ccc2c(c1OC)C(=O)N(c1cccc(C(F)(F)F)c1)C2 — higher, 1.21%
- Cc1ccc(C(=O)NCC(=O)OCC(=O)Nc2cccc(S(=O)(=O)N3CCCC3)c2)cc1C — lower, -21.7%
- Clc1ccc(CSc2nnc(-c3c[nH]c4ccccc34)o2)cc1 — higher, 18.5%
- CCc1nnc(NC(=O)c2nc3nccc(C)n3n2)s1 — higher, 1.54%
- COc1ccc(OCCC(=O)OCC(=O)Nc2cccc(S(=O)(=O)N3CCOCC3)c2)cc1 — higher, -18.6%
- O=C(COC(=O)CCOc1ccccc1)NCCC1=CCCCC1 — higher, 17.9%
- Cc1cc(C(=O)Nc2ccccc2C#N)n(-c2ccccc2)n1 — higher, 4.37%
- Br.Cc1nn2cc(-c3ccc(Cl)cc3)nc2s1 — higher, 2.21%
- Cc1ccc(S(=O)(=O)N(Cc2n[nH]c(=S)n2-c2ccccc2)c2ccccc2)cc1 — higher, -19.1%
- COc1ccc(NC(=O)NN(C(=O)c2ccccc2)C(C)(C)C)cc1 — higher, -0.424%
- COc1ccc(NS(=O)(=O)c2cccc(C(=O)NCCCN3CCCC3=O)c2)cc1 — higher, 17.9%
- CC(NC(=O)COc1ccccc1)C(c1ccccc1)N1CCN(C)CC1 (centres unmarked) — higher, -9.29%
- Cc1ccc(S(=O)(=O)N2CCOCC2)cc1C(=O)Nc1cccc(S(=O)(=O)N2CCCC2)c1 — lower, -38.3%
- Cc1cccc(Oc2cc(NC(=O)c3ccccc3)cc([N+](=O)[O-])c2)c1 — higher, 3.71%
- C[C@@H]1[C@@H](Sc2ccccc2)CC(=O)O[C@@H]1c1ccc(-c2ccccc2)cc1 — higher, 10.1%
- O=C(CN(c1ccccc1)S(=O)(=O)c1ccc(F)cc1)NC1CCS(=O)(=O)C1 (centres unmarked) — higher, 5.22%
- O=C(Nc1ccc(F)cc1F)c1ccc2nc(N3CCOCC3)sc2c1 — higher, -3.34%
- COc1cc(NC(=O)c2cccnc2)c(OC)cc1NC(=O)c1ccc(Br)cc1 — higher, 3.53%
- O=S(=O)(c1ccccc1)N1CCN=C1SCc1ccccc1 — higher, -19.3%
- O=C(CCCCn1c(=O)c2ccccc2n(CC(=O)NC2CCCC2)c1=O)NCc1ccco1 — higher, -15.6%
- O=C(Nc1ccnn1C1CCN(Cc2cccc(OCCO)c2)CC1)C1CCCC1 — lower, -24.8%
